Read counts are not given, so values of variants with three or more changes are uncertain.

These results are taken from the RNAGym collection of RNA variant scans (doi:10.7554/elife.90254).

The labels stand for the following.
B1: LINE1-mini (parent)
chain: GGCAGAGCUCAACACAGCGUGGCAAAGUGGCUGUGGCUAGACUGCC

In the data set the parent is B1. In words: self-cleavage, relative activity (ratio to wild type); higher = more cleavage; in vitro, sequencing; the parent is a self-cleaving ribozyme.
In the case of GGCAGAGCUCAACACAGCGUGGCAAAGUGACUGUGGCUAGAAUGCA, the self-cleavage is 0.11. GGCAGAGCUCAACACAGCGUGGCAAAGUGGGUGUGGCUAGACUCUC: the self-cleavage turned out to be 0. In the case of GGCAGAGCUCAACACAGCGUGGCAAAGUGGGCUUGGCUAGACUGCC, the self-cleavage was 0.12. Under GGCAGAGCUCAACACAGCGUGGCAAAGUGGGUGCGGAUAGACUGCC stands 0.04; under GGCAGAGCUCAACACAGCGUGGCAAAGUGCCUGUGGUUCGACUGCC, 0.08; under GGCAGAGCUCAACACAGCGUGGCAAAGUGGGAGAGGCUAGACUGCA, 0.02. With GGCAGAGCUCAACACAGCGUGGCAAAGUGGAUGCGUGUAGACUUCC, the self-cleavage stood at 0.13. To GGCAGAGCUCAACACAGCGUGGCAAAGUGGCAGUGGCUAGAAGGCC belongs 0.02. GGCAGAGCUCAACACAGCGUGGCAAAGUGGAUGUGGAUAGACUGAC: the self-cleavage stood at 0.03.

Consider GGCAGAGCUCAACACAGCGUGGCAAAGUGGAAGAGGCUAGACUCCG, for which the self-cleavage came to 0.02. On to GGCAGAGCUCAACACAGCGUGGCAAAGUGGAUGUGGCAAGAAUGCC, for which the self-cleavage came out at 0.12.

For the variant GGCAGAGCUCAACACAGCGUGGCAAAGUGGAUGUGGCUAGGAUGUC, the self-cleavage amounted to 0.02. Take GGCAGAGCUCAACACAGCGUGGCAAAGUGGGUGUGGCUAUACUGCU: the self-cleavage is 0.02. For GGCAGAGCUCAACACAGCGUGGCAAAGUGGAUGUAGCUAGAGUGCC, the self-cleavage stood at 0.

On to GGCAGAGCUCAACACAGCGUGGCAAAGUGACUGGAGCUAGACUGCC, for which the self-cleavage turned out to be 0. To GGCAGAGCUCAACACAGCGUGGCAAAGUGGCAAUGGCUAGACUGCA belongs 0.1.

As to GGCAGAGCUCAACACAGCGUGGCAAAGUGGUUGUGGUUAGACAGAC, the self-cleavage was found to be 0.07. Under GGCAGAGCUCAACACAGCGUGGCAAAGUGGUUGUGGCUGGACGGCC stands 0.02; under GGCAGAGCUCAACACAGCGUGGCAAAGUGCAUGUGGCUAGACGGCU, 0.03; under GGCAGAGCUCAACACAGCGUGGCAAAGUGUCUGGGGCUAGACCGCC, 0.02. As for GGCAGAGCUCAACACAGCGUGGCAAAGUGGUUAGGGCGACACUGCC, the self-cleavage is 0.02.

Turning to GGCAGAGCUCAACACAGCGUGGCAAAGUGUGUGUGGCUAGAAUGCC, the self-cleavage stood at 0.15. To GGCAGAGCUCAACACAGCGUGGCAAAGUGCCAGUGGCUAGACUUCC belongs 0.03; to GGCAGAGCUCAACACAGCGUGGCAAAGUGGUUGAGGCUUGACUGCC, 0.03; to GGCAGAGCUCAACACAGCGUGGCAAAGUGCCUGUGGCUCGACUGAC, 0.11.

For GGCAGAGCUCAACACAGCGUGGCAAAGUGGAUGUGGCUAGGUUGCC, the self-cleavage was found to be 0.42. Take GGCAGAGCUCAACACAGCGUGGCAAAGUGACUGUGGCUAGACUCCG: the self-cleavage is 0.09. As for GGCAGAGCUCAACACAGCGUGGCAAAGUGGGUCUGGCUAGACUGCU, the self-cleavage stood at 0.09. For GGCAGAGCUCAACACAGCGUGGCAAAGUGGUUGUGGCCAGACUGUC, the self-cleavage was found to be 0.07. Take GGCAGAGCUCAACACAGCGUGGCAAAGUGUCUGUGGCCACACUGCG: the self-cleavage amounted to 0.03.

Regarding GGCAGAGCUCAACACAGCGUGGCAAAGUGGUUGUAGGUAGACUGCC, the self-cleavage is 0.07. Turning to GGCAGAGCUCAACACAGCGUGGCAAAGUGGAUGUGGGUAGGCUGCC, the self-cleavage came out at 0.01. Take GGCAGAGCUCAACACAGCGUGGCAAAGUGCCUGUGACUAGACUGCA: the self-cleavage came out at 0.04. As to GGCAGAGCUCAACACAGCGUGGCAAAGUGACUUUAGCUAGACUGCC, the self-cleavage is 0.04.

GGCAGAGCUCAACACAGCGUGGCAAAGUGGCACUGGCUCGACUGUC: the self-cleavage came out at 0.02. For the variant GGCAGAGCUCAACACAGCGUGGCAAAGUGCCUGGGGCUAGAAUGCC, the self-cleavage was 0.02. Consider GGCAGAGCUCAACACAGCGUGGCAAAGUGGGUGGGGGUAGAAUGCC, for which the self-cleavage was 0.02. Consider GGCAGAGCUCAACACAGCGUGGCAAAGUGCCUUUGGCUAGAAUGCC, for which the self-cleavage came out at 0.05. Take GGCAGAGCUCAACACAGCGUGGCAAAGUGGUUGUGUCUAAACUGCC: the self-cleavage was 0.09. Take GGCAGAGCUCAACACAGCGUGGCAAAGUGGAUGUGGUUAGCAUGCC: the self-cleavage was 0.02.

As for GGCAGAGCUCAACACAGCGUGGCAAAGUGGGAGUGGUUAGACUGCC, the self-cleavage was 0.03. To GGCAGAGCUCAACACAGCGUGGCAAAGUGUCUGUGGCGAGACAGCC belongs 0.02; to GGCAGAGCUCAACACAGCGUGGCAAAGUGCAUGUGGCAAGUCUGCC, 0.07; to GGCAGAGCUCAACACAGCGUGGCAAAGUGCCUGUGCAUAGAAGGCC, 0.04.

As to GGCAGAGCUCAACACAGCGUGGCAAAGUGACUGUCGCUAGACUGCU, the self-cleavage worked out at 0.02. As to GGCAGAGCUCAACACAGCGUGGCAAAGUGCCUCUGGCUAGACAGCC, the self-cleavage was 0. As to GGCAGAGCUCAACACAGCGUGGCAAAGUGGGUGAGGCUAGACUGCU, the self-cleavage was 0.02. Turning to GGCAGAGCUCAACACAGCGUGGCAAAGUGUCUGUGGACAGACUGCC, the self-cleavage came to 0.06. On to GGCAGAGCUCAACACAGCGUGGCAAAGUGUCUUUGGCUAAACUGCC, for which the self-cleavage was 0.05. GGCAGAGCUCAACACAGCGUGGCAAAGUGGGUAUGGUUAGACUGCC: the self-cleavage was found to be 0.06.

Regarding GGCAGAGCUCAACACAGCGUGGCAAAGUGCCUGUGGCUAGAUGGCA, the self-cleavage came out at 0.41. For the variant GGCAGAGCUCAACACAGCGUGGCAAAGUGGUUCUGGCUAGACUACC, the self-cleavage is 0.11. GGCAGAGCUCAACACAGCGUGGCAAAGUGACUGUGGCUACAAUGCC: the self-cleavage turned out to be 0.19.

As to GGCAGAGCUCAACACAGCGUGGCAAAGUGGCAGUGGCUCGAAUGCG, the self-cleavage was 0.02. For GGCAGAGCUCAACACAGCGUGGCAAAGUGGCAGUGGGUAGCCUGCC, the self-cleavage came out at 0.02. Consider GGCAGAGCUCAACACAGCGUGGCAAAGUGUCUGCGGCUAGAAUGCC, for which the self-cleavage worked out at 0.03.
